Data from publication PMC4336329 (PLoS ONE, 2015).
The whole screen tested about 310,000 compounds, of which about 2,200 (0.71%) showed an effect of 50% or more. The effect is printed as a negative number. The list shows a part of the results.

Target: human ether-à-go-go-related gene (hERG) potassium channel (human, UniProt Q12809)
Test: primary screen, population patch clamp on CHO cells stably expressing hERG

Chain of human ether-à-go-go-related gene (hERG) potassium channel (Q12809 whole entry, looked up): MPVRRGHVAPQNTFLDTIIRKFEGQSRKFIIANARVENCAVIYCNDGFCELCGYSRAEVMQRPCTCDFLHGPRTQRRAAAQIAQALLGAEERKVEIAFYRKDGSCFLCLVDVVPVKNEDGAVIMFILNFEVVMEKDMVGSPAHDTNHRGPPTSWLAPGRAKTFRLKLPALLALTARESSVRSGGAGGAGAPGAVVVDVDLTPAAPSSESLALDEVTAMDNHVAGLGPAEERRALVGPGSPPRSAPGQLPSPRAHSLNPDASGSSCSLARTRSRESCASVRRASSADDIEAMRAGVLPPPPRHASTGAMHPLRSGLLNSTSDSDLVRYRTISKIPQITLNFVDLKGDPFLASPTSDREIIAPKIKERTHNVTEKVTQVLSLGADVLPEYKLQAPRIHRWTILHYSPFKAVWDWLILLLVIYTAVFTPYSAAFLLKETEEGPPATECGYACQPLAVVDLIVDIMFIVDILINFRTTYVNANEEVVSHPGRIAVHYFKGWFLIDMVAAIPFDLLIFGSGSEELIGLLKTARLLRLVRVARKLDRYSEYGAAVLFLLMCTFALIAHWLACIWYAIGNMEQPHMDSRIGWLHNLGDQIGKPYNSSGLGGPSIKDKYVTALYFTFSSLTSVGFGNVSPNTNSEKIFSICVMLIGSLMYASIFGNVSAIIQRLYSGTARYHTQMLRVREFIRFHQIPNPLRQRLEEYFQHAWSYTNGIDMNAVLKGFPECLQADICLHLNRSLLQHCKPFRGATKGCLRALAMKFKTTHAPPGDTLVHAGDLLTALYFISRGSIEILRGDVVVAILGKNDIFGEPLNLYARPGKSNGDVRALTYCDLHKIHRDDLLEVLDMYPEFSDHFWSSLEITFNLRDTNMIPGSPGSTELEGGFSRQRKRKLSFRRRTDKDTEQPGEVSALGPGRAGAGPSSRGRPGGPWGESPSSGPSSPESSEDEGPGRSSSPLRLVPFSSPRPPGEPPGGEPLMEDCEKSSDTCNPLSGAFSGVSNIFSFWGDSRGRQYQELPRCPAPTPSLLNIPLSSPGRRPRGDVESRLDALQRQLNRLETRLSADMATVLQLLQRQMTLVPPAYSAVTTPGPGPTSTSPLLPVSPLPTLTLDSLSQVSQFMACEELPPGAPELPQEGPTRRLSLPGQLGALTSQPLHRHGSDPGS

| Structure (SMILES) | hERG current change (%, negative = inhibition) at 1uM [%] |
| --- | --- |
| CS(=O)(=O)N(CC(=O)NCc1ccco1)c1cccc([N+](=O)[O-])c1 | -0.556 |
| Cc1ccc(Cl)cc1N1CCN(C(CC(C)C)c2nnnn2CC2CCCO2)CC1 (stereo not shown) | 13.8 |
| Cl.Nc1ccc(O)c2ccccc12 | 18.7 |
| Cc1nc2ccccn2c1C(=O)NCc1cccnc1 | 8.09 |
| O=C(CSCc1c(F)cccc1Cl)NCCSCc1ccco1 | 8.74 |
| COc1ccc(N2CCN(C(c3cccc(OC)c3OC)c3nnnn3C3CCCC3)CC2)cc1.Cl (stereo not shown) | 10.1 |
| COc1ccc(S(=O)(=O)N2CCCC(C(=O)NCCC3=CCCCC3)C2)cc1 (stereo not shown) | 6.97 |
| CCN(CC)CC(O)Cn1c2ccccc2c2ccccc21 (stereo not shown) | 5.23 |
| CC1(OC(=O)CCc2ccccc2)C(=O)C=C2C=C(c3ccc(C#N)cc3)N(Cc3ccco3)C=C2C1=O (stereo not shown) | 1.55 |
| CCc1nc2ccccc2nc1N1CCN(S(=O)(=O)c2ccccc2)CC1 | 11.9 |
| COc1ccc(CN(C)C(=O)COC(=O)c2c(-c3ccccc3Cl)noc2C)cc1 | 0.987 |
| CCC(C)(C)NC(=O)C(c1ccccn1)N(C(=O)c1csnn1)c1ccc(C)cc1 (stereo not shown) | -3.03 |
| O=C(CSc1nnc(NC2CC2)s1)NN1C(=O)NC2(CCCCC2)C1=O | -3.09 |
| CCCC(=O)Nc1nc(-c2ccccc2)ns1 | -1.24 |
| Cc1ccc(S(=O)(=O)N(C)Cc2ccc(C(=O)NN=C3C4CC5CC(C4)CC3C5)cc2)cc1 | 15.7 |
| COc1c(C)cccc1C(=O)Nc1cc(-c2nn3c(C)nnc3s2)ccc1C | 5.17 |
| CC(=O)N1CCn2c3ccc(C)cc3c3cccc1c32 | -0.708 |
| CC1CCCCN1CCn1c(=S)[nH]c2ncccc2c1=O (stereo not shown) | 7.28 |
| COc1cc(/C=C(\C#N)C(=O)NC2CCCCC2)ccc1OCc1ccc(C(=O)O)cc1 | 4.19 |
| O=[N+]([O-])c1ccc(-c2ccc(/C=N/Nc3nc(NCc4ccccc4)nc(N4CCOCC4)n3)o2)cc1 | 3.24 |
| COc1ccc2c(C)cc(SCC(=O)NCC3CCCO3)nc2c1 (stereo not shown) | -2.57 |
| CCOc1[nH]n(-c2ccc(Cl)cc2)c(=O)c1C=NCc1cccnc1 | -3.73 |

| Structure (SMILES) | hERG current change (%, negative = inhibition) at 1uM [%] |
| --- | --- |
| COC(=O)c1c(C)nc2nonc2c1N | 12.4 |
| CCOC(=O)c1sc(NC(=O)CSc2ncn(-c3ccccc3)n2)nc1C | 7.04 |
| O=C1CCN(C(=O)Nc2ccccc2)N1 | 20.4 |
| COc1cccc(/C=N/NC(=O)c2nnn(-c3nonc3N)c2C(C)C)c1OCc1ccc(F)cc1 | 20.8 |
| O=C(COC(=O)c1cccnc1Cl)c1ccc(OC(F)F)cc1 | 8.73 |
| Cc1ccc(-n2c(SCC(=O)N3CCOCC3)nnc2-c2cccnc2)cc1C | 1.52 |
| COc1ccc(NCC(=O)Nc2ccccc2C#N)cc1Cl | -2.15 |
| CC(=O)NCC(=O)OCC(=O)Nc1ccc(C(C)=O)cc1 | 5.9 |
| O=C(NCCO)/C(=C\c1cccs1)NC(=O)c1cccs1 | 11.1 |
| CC(C)CCNC(=O)c1nn(Cc2ccccc2)c(=O)c2ccccc12 | 9.89 |
| O=C(NCC1COc2ccccc2O1)C1CCCN(S(=O)(=O)c2cnc[nH]2)C1 (stereo not shown) | 7.43 |
| O=C(c1ccc2c3c(cccc13)CC2)C1CCCN(C(=O)c2cc[n+]([O-])cc2)C1 (stereo not shown) | 5.99 |
| Cc1ccc(-n2nnnc2-c2cnc3ccc(Cl)cc3c2-c2ccccc2)cc1 | -4.96 |
| O=C(N/N=C/c1cccnc1)c1cc(O)c(O)c(O)c1 | 17.4 |
| COc1ccc(S(=O)(=O)Nc2cccc(SC)c2)cc1OC | 4.22 |
| CCCn1c(=S)[nH]c2cc(C(=O)N3CCc4ccccc4C3)ccc2c1=O | 13.7 |
| O=C(Cc1ccccc1)N/N=C/c1ccccc1Cl | 4.81 |
| CSCC[C@H](NC(=O)[C@@H]1CSC2c3ccccc3C(=O)N21)C(=O)NC1CCCC1 (stereo partly shown) | 2.62 |
| CCOC(=O)Cn1nc(C)c(NC(=O)COc2cccc(Cl)c2)c1C | 4.07 |
| O=C(CSCc1ccccc1Cl)NN=C1CCCCCC1 | 3.24 |
| CN(C(=O)c1cccc(NC(=O)c2cccs2)c1)c1ccccc1 | 4.18 |
| Clc1ccc(OCCN2CCN(c3ncnc4sccc34)CC2)cc1 | -43.1 |

| Structure (SMILES) | hERG current change (%, negative = inhibition) at 1uM [%] |
| --- | --- |
| C=CCN(Cc1ccc(Cl)s1)C(=O)CNC(=O)CNC(=O)c1ccc(Cl)cc1Cl | -35.4 |
| CC[C@H](C)/C=C/C1=CC2=C(Cl)C(=O)[C@@]3(C)OC(=O)C(C(=O)[C@H](C)[C@@H](C)O)=C3C2=CO1 | 17.2 |
| CCOC(=O)Cc1cc(=O)n2[nH]c(C)c(-c3ccccc3)c2n1 | 0.22 |
| COC(=O)COc1ccc(NC(=O)c2ccco2)cc1 | 13.5 |
| Cc1ccc(S(=O)(=O)N2CCCC2)cc1C(=O)N1CCN(Cc2ccccc2)CC1 | 3.33 |
| CC(=O)c1cccc(N(C(=O)Cn2nnc3ccccc32)C(C(=O)NCc2ccccc2)c2ccccn2)c1 (stereo not shown) | -0.747 |
| CN(CC(=O)Nc1ccccc1Cl)CC(=O)Nc1sc2c(c1C(N)=O)CCC2 | -24.7 |
| COc1cc(CCNC(=O)c2cnn3ccccc23)cc(OC)c1OC | 5.48 |
| COc1ccc(NC(=O)CN2CCN(S(=O)(=O)c3ccc(F)cc3)CC2)cc1Cl | 7.03 |
| O=C(O)/C=C/c1ccccc1Oc1ccc(Cl)cc1Cl | -1.05 |
| Cc1ccc(C(=O)CSc2nnc(C(C)C)n2C)cc1C | 7.82 |
| COc1ccc(COCC(CC(C)C)N2CCN(C(=O)c3cccc(C(F)(F)F)c3)CCC2=O)cc1 (stereo not shown) | 5.89 |
| CN(CC(=O)Nc1ccc(N2CCOCC2)cc1)C(=O)c1cccc(Cl)c1Cl | 12.4 |
| CC(=O)Oc1oc(-c2ccccc2)nc1C=Nc1ccc(N(C)C)cc1 | 13.8 |
| CSc1nc(C(=O)N2CCCC(Nc3ccc(C)c(C)c3)C2)cs1 (stereo not shown) | 4.37 |
| Cc1ccc2c(Cl)c(C(=O)NCC(c3ccco3)N3CCCC3)sc2c1 (stereo not shown) | 9.68 |
| CCN(CCNC(=O)C1CCN(S(=O)(=O)CC)CC1)c1ccccc1 | -5.82 |
| COc1ccc(-c2ccc(=O)n(CC(=O)Nc3cccc(O)c3)n2)cc1OC | 13.5 |
| Cc1noc(C)c1COc1ccccc1C(=O)NNC(=O)C(C)Oc1ccccc1F (stereo not shown) | -15.5 |
| COc1ccc(NC(=S)N=Nc2c(O)[nH]c3ccccc23)cc1 | 4.91 |
| CCN(C(=O)COC(=O)c1c(C)noc1C)C1CCS(=O)(=O)C1 (stereo not shown) | 8.32 |
| CN1C(=O)c2ccccc2C(C(=O)NCCCN2CCCC2=O)C1c1c[nH]c2ccccc12 (stereo not shown) | 6.9 |

| Structure (SMILES) | hERG current change (%, negative = inhibition) at 1uM [%] |
| --- | --- |
| Cc1c(C)c2c(c(C)c1O)CC[C@@](C)(CCC[C@H](C)CCC[C@H](C)CCCC(C)C)O2 | 13.3 |
| CCOc1ccccc1OC(=O)c1ccco1 | 2.02 |
| O=C(CN1C(=O)COc2ccc(S(=O)(=O)N3CCOCC3)cc21)Nc1cccc(Cl)c1 | 11.6 |
| O=C(Nc1ccc(OC(=O)c2ccccc2)c(-c2nc3ccccc3s2)c1)c1ccccc1 | 20.6 |
| Cc1nnc(SCC(=O)Nc2cc(-c3cc(C)c(C)cc3C)nn2-c2ccccc2)s1 | -3.38 |
| CCn1c(C(=O)N2CCCC(C(=O)NCCc3ccc(C)cc3)C2)cc2sccc21 (stereo not shown) | -6.49 |
| Cc1nn(-c2ncc(C(F)(F)F)cc2Cl)c(=O)n1-c1cccc(F)c1 | 4.48 |
| C=CCNC(=O)C1CC(=O)N(c2ccc(OCc3ccc(F)cc3)cc2)C1 (stereo not shown) | 17.5 |
| COC(=O)CCC(=O)OC1(C)C(=O)C2=CN(Cc3ccccc3)C(c3ccc(OC)cc3)=CC2=C(Br)C1=O (stereo not shown) | 17.3 |
| Cc1ccccc1NC(=O)Cc1nc(COC(=O)Cc2ccccc2)cs1 | 0.531 |
| CC1CCCCC1NC(=O)CCNS(=O)(=O)c1ccc(Cl)cc1 (stereo not shown) | 7.29 |
| CCCCc1nc2cc(C(=O)NC(C)c3cnn(C)c3)ccc2o1 (stereo not shown) | 10.8 |
| COc1ccc(S(=O)(=O)NCC2CCCO2)cc1NC(=O)c1ccccc1 (stereo not shown) | 11.7 |
| CC(=O)OCCCNc1cc(Sc2ccc(Cl)cc2)c2nonc2c1[N+](=O)[O-] | 8.63 |
| CCn1c(SCCOc2ccc(Cl)cc2)nnc1-c1cccs1 | -1.16 |
| Nc1nc(Br)c2c(F)cccc2c1-c1ccc(F)cc1 | -8.87 |
| COc1cc(OC)cc(C(=O)N(CN2CCCC2=O)c2ccccc2OC)c1 | -1.2 |
| C/C(=N\NC(=O)CCC(=O)Nc1ccc(C)c(C)c1)c1cccs1 | 12.7 |
| CCOC(=O)c1cnc2c(Cl)cc(Cl)cc2c1NCCCN1CCOCC1 | 6.43 |
